Here are results for three molecules from the supplement of paper PMC8047034.

Counter-ions that a name gives are not always drawn. The list shows a part of the results. Most values come without repeats; read them as rough.

The test system of one experiment is OVCAR4. The experiment can be described thus: log2 surviving fraction (library drug vs vehicle, or drug + carboplatin vs carboplatin alone; relative to plate median); ovarian cancer lines: OVCAR4 is platinum-sensitive and Ov4Carbo platinum-resistant; higher = more cell survival. The following applies: library drug concentration 10 µM, 7 days.
The subject of a further experiment is Ov4Carbo. The description is as above. Conditions: library drug concentration 10 µM, 7 days.

As to `O=C(CCCN1CCC(O)(c2ccc(Cl)cc2)CC1)c1ccc(F)cc1` [Haloperidol (Haldol)], the log2 surviving fraction was -1.36 in the experiment with OVCAR4 (carboplatin co-treatment 0 µM), 0.79 with OVCAR4 (carboplatin co-treatment 5 µM), -1.48 in the experiment with Ov4Carbo (carboplatin co-treatment 0 µM) and 0.304 with Ov4Carbo (carboplatin co-treatment 5 µM).

As to `CCCCOc1cc(C(=O)NCCN(CC)CC)c2ccccc2n1` [Dibucaine HCL], the log2 surviving fraction is 0.501 with OVCAR4 (carboplatin co-treatment 0 µM), -0.214 with OVCAR4 (carboplatin co-treatment 5 µM), -0.364 in the experiment on Ov4Carbo (carboplatin co-treatment 0 µM) and -0.0255 in the experiment with Ov4Carbo (carboplatin co-treatment 5 µM).

Regarding `CC(=O)N[C@H]1[C@H]([C@H](O)[C@H](O)CO)OC(C(=O)O)=C[C@@H]1NC(=N)N` [Zanamivir (Relenza)], the log2 surviving fraction in the experiment with OVCAR4 (carboplatin co-treatment 0 µM) was 0.744; in the experiment on OVCAR4 (carboplatin co-treatment 5 µM), -0.0163; with Ov4Carbo (carboplatin co-treatment 0 µM) it was -0.396; in the experiment with Ov4Carbo (carboplatin co-treatment 5 µM) it was 0.215.
